In ChEMBL document CHEMBL4888484, “Replenishing the malaria drug discovery pipeline: Screening and hit evaluation of the MMV Hit Generation Library 1 (HGL1) against asexual blood stage Plasmodium falciparum ,using a nano luciferase reporter read-out” (2022):
Hit rate of the full screen: of about 150,000 compounds, about 540 (0.36%) showed an effect of 50% or more. Some of the results follow.

System: Plasmodium falciparum
Assay: Primary screen in NF54 nanoGlo assay, in single point, at 2uM, 72h; a lower Z score goes with more inhibition
Assay type: functional, Erythrocyte
Conditions: timepoint 72 hour

First: COc1cc(-c2ncc(F)c(N(C)C)n2)c(Cl)cn1
Second: Cc1cnn(CCc2nc(CC(N)=O)nn2Cc2c(F)cccc2Cl)c1
The “% Inhibition” value of the first is higher: 1% for the first, -8% for the second.

First: O=C(Cn1cccn1)N1C[C@](O)(C(F)(F)F)c2cccnc21
Second: Cc1cnn(C2CN(Cc3cccnc3)C2)c1
The “% Inhibition” value of the first is lower: -9% for the first, -8% for the second.

Going from `O=C(NCCN1C(=O)COC1=O)Nc1nc2c(s1)CCCC2` to `CN1CCC(CC(=O)NCc2ccc(CN3CCCC3=O)cc2)CC1`, the “% Inhibition” value rises from -13% to -4%.

First: CC(=O)N(CCN1CCCCC1)[C@H]1CCCN(C(=O)c2cc(Cl)ccc2F)C1
Second: O=C(O)c1ccccc1CCN1CC[C@H](O)[C@@H](C2CCCC2)C1
The “% Inhibition” value of the first is lower: -9% for the first, -4% for the second.

First: Cc1cc(C(=O)NC[C@]2(O)CCCN(C(=O)Cn3ccnc3)CC2)c(C)o1
Second: Cc1cccc(CC(=O)N2CCC3(CC2)Nc2cccnc2N=C3NC2CCCC2)c1
The “% Inhibition” value of the first is lower: -5% for the first, 34% for the second.

Going from `CCN1C(=O)[C@@H]2CC3(CCN(C(=O)Cc4ccccc4)CC3)CN2C1=O` to `CC(=O)N(CN1C(=O)C2CCCCC2C1=O)c1ccccc1` (stereo not drawn), the “% Inhibition” value rises from -13% to -1%.

`CN(CCC[C@H]1CCCO1)C(=O)NCc1nc(C2CCCCC2)no1` and `CC1(C)C[C@@H](C(=O)NC2CCCCC2)CCO1` are the same in “% Inhibition” value: -13% for the first, -13% for the second.

`CCOc1cccc(COC(=O)c2ccncc2F)n1` and `CCOC(=O)c1cccnc1NCc1ccc(N2CCNC(=O)C2)cc1` are the same in “% Inhibition” value: -5% for the first, -5% for the second.

Going from `Cc1ccccc1-c1nccc2ccccc12` to `Cc1cc(=O)n(CC(=O)Nc2ccccc2C)c(Nc2cccc(F)c2)n1`, the “% Inhibition” value falls from -2% to -9%.

First: CCc1noc(-c2cnc3nc(C)ccc3c2Nc2cccc(C(=O)OC)c2)n1
Second: Cc1ccc2[nH]nc(-c3nc(-c4cccnc4)no3)c2c1
The “% Inhibition” value of the first is lower: -9% for the first, -6% for the second.

Compared with `CCn1ccc(C(=O)NC(C)(C)c2nc3c(c(C(N)=O)n2)OCO3)n1`, `CC(C)N(C)C(=O)c1coc(COc2ccc3c(c2)OCO3)n1` is higher in “% Inhibition” value: -10% for the first, -3% for the second.

Compared with `Cc1c(CNc2ccnc3c2cnn3C)cnn1C`, `CC(C)(C)c1ncc(CNc2cnc3[nH]ncc3c2)cn1` is higher in “% Inhibition” value: -6% for the first, 4% for the second.

Compared with `CCn1cc(-c2cc(-c3ccc4c(c3)OCCO4)nc(N)c2C#N)c(C)n1`, `COc1ccc(-c2c(C)nn3c2NC(=O)CCC3=O)cc1S(=O)(=O)Nc1ccc(C)cc1Cl` is higher in “% Inhibition” value: -3% for the first, 7% for the second.

Compared with `COc1ncccc1CNC(=O)[C@@H]1CCN(c2cc(C)cc(C)c2)C1=O`, `Cc1cnc(CCNC(=O)[C@@H]2CCC(=O)N2C)nc1` is lower in “% Inhibition” value: 31% for the first, -1% for the second.

Going from `CC(C)Cc1noc(CNC(=O)CCn2cnnc2)n1` to `CC(C)Nc1ncc(-c2nc(C3CCCC3)nn2CCO)cn1`, the “% Inhibition” value rises from -4% to 0%.

Going from `Cc1ccccc1OCC(=O)N1C[C@@H]2C[C@H](NS(=O)(=O)c3ccccc3)[C@H]1C2` to `COc1ccc(OC)c2sc(NC(=O)CCOc3ccccc3)nc12`, the “% Inhibition” value falls from 29% to -17%.

Compared with `C=C(C)CN(CC)S(=O)(=O)N(C)C1CCCCC1`, `CCN(CC)S(=O)(=O)N[C@@H](C)CCc1ccc(OC)cc1` is higher in “% Inhibition” value: 5% for the first, 9% for the second.

Going from `Cc1nc(C)c2c(n1)O[C@@H](CN(C)Cc1ccc(C)o1)C2` to `CCn1ncnc1CN(C)Cc1ccc2c(c1)CN(C)C2`, the “% Inhibition” value rises from -4% to 17%.

First: c1cc(N[C@H]2CCOC2)cc(-c2nc(C3CC3)n[nH]2)c1
Second: Cc1nc(C2CC2)nc(N2CCN(C(=O)c3ccc(F)cc3)CC2)c1Cc1c(F)cccc1Cl
The “% Inhibition” value of the first is higher: -8% for the first, -9% for the second.

First: COc1cccc2c1OCc1cn(nn1)[C@H]1CN(C(=O)c3ccc4ncsc4c3)C[C@H]1CC(=O)NCCN(C)C2=O
Second: Cc1ccc(C(=O)N2CCc3[nH]nc(C(=O)N4CCN(c5ccccc5C)CC4)c3C2)cc1
The “% Inhibition” value of the first is higher: -5% for the first, -6% for the second.

First: C[C@]1(O)CCN(C(=O)c2cccc(OC(F)F)c2)C[C@H]1O
Second: CNS(=O)(=O)c1cc(C(=O)N2CCC(CNC(=O)c3cnn(C)c3)CC2)cc(C)c1C
The “% Inhibition” value of the first is lower: -23% for the first, 6% for the second.

Going from `Cc1[nH]c(=O)[nH]c(=O)c1S(=O)(=O)N1CCN(c2cccc(Cl)c2)CC1` to `CC(C)n1c(=O)c(NCc2ccc(N3CCOCC3)cc2)nc2ccncc21`, the “% Inhibition” value rises from -8% to -1%.

First: CCc1noc(C)c1NC(=O)N1CCOC(C(F)(F)F)C1C (stereo not drawn)
Second: C[C@@H]1[C@H](N(C)CCO)CCN1c1nccc2occc12
The “% Inhibition” value of the first is higher: -4% for the first, -12% for the second.

Compared with `Cc1ccc(NC(=O)c2c([O-])n(-c3ccc(C)cc3)n[n+]2Cc2ccccc2)cc1`, `COc1ccc(OCc2nn(-c3nc4ccccc4s3)c(N)c2-c2ccccc2)cc1` is lower in “% Inhibition” value: 4% for the first, -10% for the second.

Going from `Cc1cc(=O)[nH]c(NCCNC(=O)c2cc(C#N)c[nH]2)n1` to `CN(Cc1cc2ccccc2s1)C(=O)c1cn(C[C@H]2CCCNC2)nn1`, the “% Inhibition” value rises from -3% to 12%.

Compared with `C[C@H]1CN(Cc2cc3ccccc3n2C)CCS(=O)(=O)C1`, `CN1CCC(N(Cc2ccncc2)Cc2cc(F)cc(Cl)c2)CC1` is higher in “% Inhibition” value: -6% for the first, 2% for the second.

Going from `COCCCN(CCOC)C(=O)Cc1csc(C)n1` to `O=C(Nc1cccc2c1CCCC2)[C@@H]1CC=CCC1`, the “% Inhibition” value falls from -5% to -20%.

Compared with `COc1cc(-c2ncc(F)c(N(C)C)n2)c(Cl)cn1`, `Cc1cnn(CCc2nc(CC(N)=O)nn2Cc2c(F)cccc2Cl)c1` is higher in Z score: -0.19 for the first, 0.88 for the second.

Compared with `O=C(Cn1cccn1)N1C[C@](O)(C(F)(F)F)c2cccnc21`, `Cc1cnn(C2CN(Cc3cccnc3)C2)c1` is lower in Z score: 1.79 for the first, 1.31 for the second.

Going from `O=C(NCCN1C(=O)COC1=O)Nc1nc2c(s1)CCCC2` to `CN1CCC(CC(=O)NCc2ccc(CN3CCCC3=O)cc2)CC1`, the Z score falls from 2.5 to 0.54.

Compared with `CC(=O)N(CCN1CCCCC1)[C@H]1CCCN(C(=O)c2cc(Cl)ccc2F)C1`, `O=C(O)c1ccccc1CCN1CC[C@H](O)[C@@H](C2CCCC2)C1` is lower in Z score: 1.17 for the first, 0.43 for the second.

Going from `Cc1cc(C(=O)NC[C@]2(O)CCCN(C(=O)Cn3ccnc3)CC2)c(C)o1` to `Cc1cccc(CC(=O)N2CCC3(CC2)Nc2cccnc2N=C3NC2CCCC2)c1`, the Z score falls from 0.46 to -3.8.

First: CCN1C(=O)[C@@H]2CC3(CCN(C(=O)Cc4ccccc4)CC3)CN2C1=O
Second: CC(=O)N(CN1C(=O)C2CCCCC2C1=O)c1ccccc1 (stereo not drawn)
The Z score of the first is higher: 1.71 for the first, 0.1 for the second.

First: CN(CCC[C@H]1CCCO1)C(=O)NCc1nc(C2CCCCC2)no1
Second: CC1(C)C[C@@H](C(=O)NC2CCCCC2)CCO1
The Z score of the first is higher: 2.35 for the first, 1.65 for the second.

First: CCOc1cccc(COC(=O)c2ccncc2F)n1
Second: CCOC(=O)c1cccnc1NCc1ccc(N2CCNC(=O)C2)cc1
The Z score of the first is lower: 0.56 for the first, 0.96 for the second.

Going from `Cc1ccccc1-c1nccc2ccccc12` to `Cc1cc(=O)n(CC(=O)Nc2ccccc2C)c(Nc2cccc(F)c2)n1`, the Z score rises from 0.3 to 1.33.

First: CCc1noc(-c2cnc3nc(C)ccc3c2Nc2cccc(C(=O)OC)c2)n1
Second: Cc1ccc2[nH]nc(-c3nc(-c4cccnc4)no3)c2c1
The Z score of the first is lower: 1.07 for the first, 1.17 for the second.

Going from `CCn1ccc(C(=O)NC(C)(C)c2nc3c(c(C(N)=O)n2)OCO3)n1` to `CC(C)N(C)C(=O)c1coc(COc2ccc3c(c2)OCO3)n1`, the Z score falls from 1.31 to 0.47.

Compared with `Cc1c(CNc2ccnc3c2cnn3C)cnn1C`, `CC(C)(C)c1ncc(CNc2cnc3[nH]ncc3c2)cn1` is lower in Z score: 1.03 for the first, -0.39 for the second.

Compared with `CCn1cc(-c2cc(-c3ccc4c(c3)OCCO4)nc(N)c2C#N)c(C)n1`, `COc1ccc(-c2c(C)nn3c2NC(=O)CCC3=O)cc1S(=O)(=O)Nc1ccc(C)cc1Cl` is lower in Z score: 0.57 for the first, -1.33 for the second.

Compared with `COc1ncccc1CNC(=O)[C@@H]1CCN(c2cc(C)cc(C)c2)C1=O`, `Cc1cnc(CCNC(=O)[C@@H]2CCC(=O)N2C)nc1` is higher in Z score: -4.42 for the first, 0.24 for the second.

First: CC(C)Cc1noc(CNC(=O)CCn2cnnc2)n1
Second: CC(C)Nc1ncc(-c2nc(C3CCCC3)nn2CCO)cn1
The Z score of the first is higher: 0.68 for the first, -0.07 for the second.

First: Cc1ccccc1OCC(=O)N1C[C@@H]2C[C@H](NS(=O)(=O)c3ccccc3)[C@H]1C2
Second: COc1ccc(OC)c2sc(NC(=O)CCOc3ccccc3)nc12
The Z score of the first is lower: -3.28 for the first, 3.26 for the second.

First: C=C(C)CN(CC)S(=O)(=O)N(C)C1CCCCC1
Second: CCN(CC)S(=O)(=O)N[C@@H](C)CCc1ccc(OC)cc1
The Z score of the first is higher: -0.58 for the first, -1.16 for the second.

First: Cc1nc(C)c2c(n1)O[C@@H](CN(C)Cc1ccc(C)o1)C2
Second: CCn1ncnc1CN(C)Cc1ccc2c(c1)CN(C)C2
The Z score of the first is higher: 0.66 for the first, -2.22 for the second.

First: c1cc(N[C@H]2CCOC2)cc(-c2nc(C3CC3)n[nH]2)c1
Second: Cc1nc(C2CC2)nc(N2CCN(C(=O)c3ccc(F)cc3)CC2)c1Cc1c(F)cccc1Cl
The Z score of the first is higher: 1.59 for the first, 1.51 for the second.

Compared with `COc1cccc2c1OCc1cn(nn1)[C@H]1CN(C(=O)c3ccc4ncsc4c3)C[C@H]1CC(=O)NCCN(C)C2=O`, `Cc1ccc(C(=O)N2CCc3[nH]nc(C(=O)N4CCN(c5ccccc5C)CC4)c3C2)cc1` is lower in Z score: 1.03 for the first, 0.8 for the second.

First: C[C@]1(O)CCN(C(=O)c2cccc(OC(F)F)c2)C[C@H]1O
Second: CNS(=O)(=O)c1cc(C(=O)N2CCC(CNC(=O)c3cnn(C)c3)CC2)cc(C)c1C
The Z score of the first is higher: 4.27 for the first, -0.99 for the second.

Going from `Cc1[nH]c(=O)[nH]c(=O)c1S(=O)(=O)N1CCN(c2cccc(Cl)c2)CC1` to `CC(C)n1c(=O)c(NCc2ccc(N3CCOCC3)cc2)nc2ccncc21`, the Z score falls from 0.97 to 0.11.

First: CCc1noc(C)c1NC(=O)N1CCOC(C(F)(F)F)C1C (stereo not drawn)
Second: C[C@@H]1[C@H](N(C)CCO)CCN1c1nccc2occc12
The Z score of the first is lower: 0.5 for the first, 2.24 for the second.

First: Cc1ccc(NC(=O)c2c([O-])n(-c3ccc(C)cc3)n[n+]2Cc2ccccc2)cc1
Second: COc1ccc(OCc2nn(-c3nc4ccccc4s3)c(N)c2-c2ccccc2)cc1
The Z score of the first is lower: -0.47 for the first, 1.34 for the second.

Going from `Cc1cc(=O)[nH]c(NCCNC(=O)c2cc(C#N)c[nH]2)n1` to `CN(Cc1cc2ccccc2s1)C(=O)c1cn(C[C@H]2CCCNC2)nn1`, the Z score falls from 0.32 to -1.6.

Going from `C[C@H]1CN(Cc2cc3ccccc3n2C)CCS(=O)(=O)C1` to `CN1CCC(N(Cc2ccncc2)Cc2cc(F)cc(Cl)c2)CC1`, the Z score falls from 0.84 to -0.39.

Going from `COCCCN(CCOC)C(=O)Cc1csc(C)n1` to `O=C(Nc1cccc2c1CCCC2)[C@@H]1CC=CCC1`, the Z score rises from 0.9 to 1.77.
